Source: the antibiotic and cytotoxicity screens of Wong et al. (2023)
This is one part of the list.

Columns and labels:
HSkMC = human skeletal muscle cells; assay: cytotoxicity call (relative viability < 0.9); conditions: 10 µM
HepG2 = assay: cytotoxicity call (relative viability < 0.9); conditions: 10 µM
S. aureus RN4220 = assay: growth inhibition call (relative growth <= 0.2); conditions: 50 µM

CCS(=O)(=O)N1CC[C@]2(CC1)CN([C@@H](CO)c1c2c2ccc(cc2n1C)OC)C(=O)CN1CCOCC1
inactive: cytotoxicity call (HSkMC) | cytotoxicity call (HepG2) | growth inhibition call (S. aureus RN4220)

C[C@H]1CN([C@@H](C)CO)C(=O)CCCn2cc(nn2)CO[C@H]1CN(C)S(C)(=O)=O
inactive: cytotoxicity call (HSkMC) | cytotoxicity call (HepG2) | growth inhibition call (S. aureus RN4220)

C[C@@H]1CCCCO[C@H](CN(C)C(=O)Nc2ccc(C(F)(F)F)cc2)[C@H](C)CN([C@@H](C)CO)C(=O)c2cc(NC(=O)Nc3ccc4c(c3)OCO4)ccc2O1
inactive: cytotoxicity call (HSkMC) | cytotoxicity call (HepG2) | growth inhibition call (S. aureus RN4220)

C[C@@H]1CN([C@H](C)CO)C(=O)c2cc(C3=CCCC3)cnc2O[C@H]1CN(C)C(=O)Nc1ccc(C(F)(F)F)cc1
inactive: cytotoxicity call (HSkMC) | cytotoxicity call (HepG2) | growth inhibition call (S. aureus RN4220)

CCCNC(=O)Nc1ccc2c(c1)OC[C@H](C)N(Cc1ccc(-c3ccccn3)cc1)C[C@H](C)[C@@H](OC)CN(C)C2=O
inactive: cytotoxicity call (HSkMC) | cytotoxicity call (HepG2) | growth inhibition call (S. aureus RN4220)

C[C@@H]1CN([C@@H](C)CO)C(=O)Cc2cc(NC(=O)CCN3CCOCC3)ccc2O[C@@H]1CN(C)Cc1ccncc1
inactive: cytotoxicity call (HSkMC) | cytotoxicity call (HepG2) | growth inhibition call (S. aureus RN4220)

COc1ccc(S(=O)(=O)N(C)C[C@@H]2OCCCC[C@H](C)Oc3ccc(NC(=O)NC4CCCCC4)cc3C(=O)N([C@H](C)CO)C[C@H]2C)cc1
inactive: cytotoxicity call (HSkMC) | cytotoxicity call (HepG2) | growth inhibition call (S. aureus RN4220)

COc1cc(N)ccc1N1CCCS1(=O)=O
inactive: cytotoxicity call (HSkMC) | cytotoxicity call (HepG2) | growth inhibition call (S. aureus RN4220)

C[C@@H]1CN([C@H](C)CO)C(=O)c2cccc(NS(=O)(=O)c3ccc(F)cc3)c2O[C@H]1CN(C)CC1CC1
inactive: cytotoxicity call (HSkMC) | cytotoxicity call (HepG2) | growth inhibition call (S. aureus RN4220)
